# Test results from the supplement of paper PMC4967469.
# IC50 is the fitted dose that halves viability relative to control wells, and lower means more sensitive; fits outside the tested doses are given as limits. For AUC the same curve is integrated over the 256-fold range of doses and scaled to a fraction; values near 1 show little effect. For part of these data: Where the top dose is marked as inferred, it is not printed in the source and was worked back from the curve model.
# Key:
# Test in all cases: Viability of human cancer cell lines after 72 h of drug (GDSC screen)
# AT-7519 = compound: O=C(NC1CCNCC1)c1n[nH]cc1NC(=O)c1c(Cl)cccc1Cl [AT-7519]; settings: top dose 10.24 µM; top dose inferred
# Procedure: (§1)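 Human cancer cell lines in 384-well plates, medium with 10% serum, drug for 72 h over a 256-fold dose range (nine 2-fold or five 4-fold steps up to the top dose). Adherent lines were fixed and stained with the nucleic acid dye Syto60, suspension lines read with resazurin; signal relative to control wells, capped at 0 and 100%. One two-parameter sigmoid per drug and line, fitted in a mixed model over all curves with the slope shared within a line.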
# FH535 = compound: Cc1cc([N+](=O)[O-])ccc1NS(=O)(=O)c1cc(Cl)ccc1Cl [FH535]; settings: top dose 32 µM; top dose inferred
# Procedure: as §1
# A-443654 = compound: Cc1n[nH]c2ccc(-c3cncc(OC[C@@H](N)Cc4c[nH]c5ccccc45)c3)cc12 [A-443654]; settings: top dose 1.024 µM; top dose inferred
# Procedure: as §1
# Dasatinib = compound: Cc1nc(Nc2ncc(C(=O)Nc3c(C)cccc3Cl)s2)cc(N2CCN(CCO)CC2)n1 [Dasatinib]; settings: top dose 1.28 µM
# Procedure: as §1
# XMD14-99 = compound: COc1cc(N2CCN(C)CC2)ccc1Nc1nc(N)c(C(=O)c2c(Cl)cccc2Cl)s1 [XMD14-99]; settings: top dose 10.24 µM; top dose inferred
# Procedure: as §1
Cell Line,AUC (AT-7519),IC50 (AT-7519) [nM],AUC (FH535),IC50 (FH535) [nM],AUC (A-443654),IC50 (A-443654) [nM],AUC (Dasatinib),IC50 (Dasatinib) [nM],AUC (XMD14-99),IC50 (XMD14-99) [nM]
"JVM-3 (lymphoid neoplasm, suspension)",0.721,2750,0.921,> 32000,0.921,> 1020,0.976,> 1280,0.986,> 10200
"KARPAS-45 (lymphoblastic leukaemia, suspension)",0.192,96.3,0.649,4790,0.757,301,0.871,874,0.931,> 10200
"KARPAS-299 (anaplastic large cell lymphoma, suspension)",0.258,151,0.952,> 32000,0.785,360,0.984,> 1280,0.838,5330
"KARPAS-422 (B-cell lymphoma, suspension)",0.427,405,0.692,6870,0.741,309,0.536,100,0.891,> 10200
"KARPAS-620 (haematopoietic neoplasm, suspension)",0.293,185,0.524,2300,0.536,79.2,0.887,1070,0.968,> 10200
"KELLY (neuroblastoma, adherent)",0.872,8230,0.732,8520,0.742,290,0.918,> 1280,0.989,> 10200
"KG-1 (acute myeloid leukaemia, suspension)",0.855,6840,0.707,7130,0.963,> 1020,0.961,> 1280,0.896,10200
"KLE (endometrium, adherent)",0.713,3630,0.696,9780,0.637,189,0.528,99.1,0.978,> 10200
"KM-H2 (Hodgkin lymphoma, suspension)",0.62,1290,0.834,16600,0.862,669,0.988,> 1280,0.971,> 10200
"KMOE-2 (acute myeloid leukaemia, suspension)",0.491,605,0.626,4270,0.885,907,0.99,> 1280,0.99,> 10200
"KMS-12-BM (myeloma, suspension)",0.356,276,0.687,6020,0.639,144,0.978,> 1280,0.979,> 10200
"KOPN-8 (B-cell leukaemia, suspension)",0.358,275,0.674,5630,0.704,218,0.927,> 1280,0.943,> 10200
"KP-N-YN (neuroblastoma, adherent)",0.979,> 10200,0.771,13500,0.913,> 1020,0.964,> 1280,0.981,> 10200
"KP-N-YS (neuroblastoma, adherent)",0.555,926,0.791,16700,0.846,912,0.832,990,0.935,> 10200
"KS-1 (glioma, adherent)",0.694,2600,0.728,10700,0.496,62.2,0.323,22.6,0.962,> 10200
"KURAMOCHI (ovary, adherent)",0.657,1880,0.452,1450,0.617,141,0.405,42,0.963,> 10200
"KY821 (leukaemia, suspension)",0.702,2170,0.911,> 32000,0.712,231,0.989,> 1280,0.992,> 10200
"L-363 (myeloma, suspension)",0.329,230,0.684,6010,0.647,,0.99,> 1280,0.966,> 10200
"L-428 (Hodgkin lymphoma, suspension)",0.872,7750,0.779,11400,0.904,> 1020,0.993,> 1280,0.979,> 10200
"LB373-MEL-D (melanoma, adherent)",0.88,10200,0.509,2110,0.797,471,0.839,846,0.99,> 10200
"LB771-HNC (head and neck, adherent)",0.694,2610,0.525,2390,0.681,235,0.852,> 1280,0.968,> 10200
"LB831-BLC (bladder, adherent)",0.537,809,0.482,1780,0.684,212,0.423,49,0.987,> 10200
"LC4-1 (lymphoblastic leukaemia, suspension)",0.266,127,0.786,15500,0.667,198,0.975,> 1280,0.835,7730
"LC-2-ad (lung adenocarcinoma, adherent)",0.496,625,0.651,5320,0.366,27.1,0.376,36,0.97,> 10200
"LNCaP-Clone-FGC (prostate, adherent)",0.443,437,0.774,14300,0.92,> 1020,0.984,> 1280,0.937,> 10200
